Where “and” joins values, the source holds several entries; their conditions need not be identical. Equal values may be shown once. Whole data set: some 5,400 compounds, median “IFI” near 2, cut for the highest 2% near 22. The list shows a part of the results.

We go through 102 compounds from ChEMBL document CHEMBL1156829.

The assay is described as follows: NOVARTIS: Inhibition Frequency Index (IFI) - the number of HTS assays where a compound showed > 50% inhibition/induction, expressed as a percentage of the number of assays in which the compound was tested. In kind it is functional.
Consider `O=C(c1cc2nc(-c3ccccc3)cc(C(F)(F)F)n2n1)N1CCN(Cc2ccccc2)CC1`, for which the IFI worked out at 1.18%. `Oc1ccc(-c2ccc(F)cc2)cc1CNCCCn1ccnc1` returned an IFI of 0.99%.

Regarding `O=C(NC1CCN(CC(O)CN(Cc2ccccc2)S(=O)(=O)c2ccccc2)C1)c1ccccc1` (configuration not stated), the IFI is 2.94%. The result for `FC(F)(F)c1cccc(NC(=S)N2CCCC2c2ccccc2C(F)(F)F)c1` (configuration not stated) reads 1.82%; that for `CCOc1ccc(C(=O)Nc2cccc(-c3nc4cc(C)ccc4o3)c2C)cc1`, 0%. The figure for `COC(=O)c1c(-c2c(Cl)cccc2Cl)noc1/C=C/Nc1ccc(Cl)cc1` is 5.33%. The figure for `CN(C)CCCNc1ccnc2cc(Cl)ccc12` is 0%.

On to `OCCNc1nc(Nc2cccc(O)c2)nc2ccccc12`, for which the IFI was found to be 3.64%. The figure for `Cc1ccc(C(C(=O)NC2CCCCC2)N(C(=O)c2ccc(-c3ccccc3)[nH]2)c2ccc(C3CCCCC3)cc2)o1` (configuration not stated) is 3.7%. The figure for `CCOC(=O)C1=C(C)NC2=C(C(=O)C(C(=O)OCC)C(c3cccc(OC)c3)C2)C1c1ccc(OC)c(OC)c1` (configuration not stated) is 3.49%.

Turning to `CCCCCN(C(=O)c1ccc(Br)cc1)C(CC)c1nc2ccccc2c(=O)n1-c1ccccc1OC` (configuration not stated), the IFI worked out at 2.88%. The compound `N=C(N)NN=Cc1cccc(OCc2ccc(Cl)c(Cl)c2)c1` had an IFI of 2.83%.

`CC1(C)Oc2ccc(C(=O)N3CCCC3)cc2N(CCc2ccccc2)C1=O`: the IFI worked out at 0%.

Consider `CCCCCCCCNC(=O)C1CC1c1ccccc1` (configuration not stated), for which the IFI was 1.82%. In turn, `COc1cc2nc(Nc3ccc(F)cc3)nc(N)c2cc1OC` registered an IFI of 0%.

The compound `CCCCCC(=O)NCCCCCCNc1ccnc2cc(Cl)ccc12` had an IFI of 0%. The result for `CC1(C)C2CCC(C2)C1(C)NC(=S)NN=Cc1ccccn1` (configuration not stated) reads 26%; that for `CCC(c1nc2ccccc2c(=O)n1CCOC)N1CCNCC1` (configuration not stated), 3.31%. As to `Cc1ccccc1C[n+]1cc(-c2ccc(Cl)cc2)n2c1CCC2`, the IFI amounted to 7.14%. Take `CCn1cc(C(=O)NCCC2=CCCCC2)c(=O)c2cc(S(=O)(=O)N(C)C)ccc21`: the IFI is 0%. The result for `CCc1ccc2c(c1)c1nnc(SCC(=O)NCCOC)nc1n2C` reads 0%. The result for `Cc1cc(C)c2c(c1)OCN(Cc1ccccc1Cl)C2` reads 3.33%; that for `COc1ccccc1CNC(=O)CN1C(=O)c2cccnc2Oc2ccccc21`, 0%.

Take `CCc1ccc(C(=O)C[n+]2cc(-c3ccc(C)cc3)n3c2CCC3)cc1`: the IFI was 9.52%.

As for `CSc1nc(N)nc(SC2C=CCCC2)c1C#N` (configuration not stated), the IFI stood at 0%. The figure for `COc1ccc(C2C(C(=O)c3ccc(C)cc3)=C(O)C(=O)N2CCN2CCOCC2)c(OC)c1` (configuration not stated) is 0%; for `COc1ccc(CNC2CCN(c3cccc(NC(=O)C4CC4)c3)CC2)cc1` it is 0%. The result for `COc1ccc(C(NC(=O)COc2ccccc2)c2cc(Cl)c3cccnc3c2O)cc1` (configuration not stated) reads 15.4%; that for `O=C1C2C(C(=O)N1c1ccc(Br)cc1)C1C=CC2C12CC2` (configuration not stated), 0.935%; that for `Nc1ccc2[nH]c(/C=C/c3ccc(Cl)cc3)nc2c1`, 7.69%. The figure for `COc1ccc(C(=O)N2c3cc(C)ccc3C(Nc3ccc(C)cc3)CC2C)cc1` (configuration not stated) is 0%; for `Cc1ccc(S(=O)(=O)N(C)CCCNc2ccnc3cc(Cl)ccc23)cc1` it is 9.68%. `CC(=O)Nc1ccc2c(c1)C(=O)N(C(CC(C)(C)C)C(=O)NC1CCCCC1)[C@@H](CCC(=O)O)C(=O)N2` (some centres not stated) showed an IFI of 1.22%. The result for `CN(C)CCCNc1ncnc2c1[nH]c1ccc(Cl)cc12` reads 11.8%; that for `O=C(C1CCN(c2nnnn2-c2ccccc2)CC1)N1CCc2ccccc2C1`, 0%.

The compound `CCC(Oc1ccc(C(C)(C)CC)cc1C(C)(C)CC)C(=O)Nc1ccc(Cl)c([N+](=O)[O-])c1` (configuration not stated) gave an IFI of 2.48%. Compound `O=C(COc1cccc(Br)c1)NN=Cc1ccccc1F` displayed an IFI of 0%. The figure for `Cc1ccc2cc(C)c(Nc3ccc(Cl)cc3)nc2c1` is 4.54%. The result for `Cc1ccc(C)n1-c1ccc(N(C)C)cc1` reads 4.76%; that for `O=C(c1ccc(N2CC3CC(C2)c2cccc(=O)n2C3)c(NS(=O)(=O)c2ccc3c(c2)OCCO3)c1)N1CCN(c2ccccn2)CC1` (configuration not stated), 1.16%; that for `COc1ccc(OC)c(-c2ccc(O)c(CNCCc3ccccc3F)c2)c1`, 1.72%. With `Cc1cn2c3ccccc3n(CCN3CCOCC3)c2n1`, the IFI worked out at 0%. The figure for `Oc1ccccc1Nc1nc(-c2ccccc2O)nc2ccccc12` is 0%; for `COCCN(Cc1cc2ccc(F)cc2nc1N1CCCCCC1)C(=O)c1ccoc1` it is 2.94%; for `O=C(NCC1CCCO1)c1cnc(NCCCn2ccnc2)nc1NCCc1ccccc1` (configuration not stated) it is 0.952%.

In the case of `Cc1ccc(N(C)C(=O)CCNS(=O)(=O)c2cc(Br)cnc2N)cc1`, the IFI came to 2.5%. The compound `O=S(=O)(Nc1ccc(F)cc1)N1CCCCCC1` displayed an IFI of 0%.

As for `Cn1cc(C(c2cccs2)c2cn(C)c3ccccc23)c2ccccc21`, the IFI was found to be 17.5%.

Take `CCOC(=O)c1c[nH]c2c(ccc3ccccc32)c1=O`: the IFI was 0% and 1.59%. The result for `CN(CCCNc1ccc(C(=O)Nc2ccc(C(F)(F)F)cc2)cc1[N+](=O)[O-])Cc1ccccc1` reads 0%. The result for `CCN1/C(=C/c2sc3ccc(-c4ccccc4)cc3[n+]2CCO)C=Cc2ccccc21` reads 7.14%; that for `COc1ccc(C2Nc3ccc(C(C)=O)cc3C3C=CCC32)cc1[N+](=O)[O-]` (configuration not stated), 0%. The result for `Cc1ccc(C)c(Oc2c(C(F)(F)F)oc3c(CN4CCN(C)CC4)c(O)ccc3c2=O)c1` reads 0%; that for `Cc1oc2c(c1C(=O)NCc1cccnc1)C(=O)c1ccccc1C2=O`, 17.5%. `O=C(CCl)Nc1ccc(CN2CCCCC2)cc1` registered an IFI of 0%. Regarding `CCc1c(C(C)S(=O)(=O)c2ccc(C)cc2)[nH]c(=O)n1-c1ccc(OC(F)(F)F)cc1` (configuration not stated), the IFI worked out at 1.22%.

On to `Cc1cccc(-n2ccnc2SCC(=O)Nc2cc(C(F)(F)F)ccc2Cl)c1`, for which the IFI was 0%. The result for `O=C1C(=O)N(Cc2ccccc2[N+](=O)[O-])c2ccccc21` reads 0%; that for `Oc1ccc(-c2cnccn2)cc1CNC1CCN(Cc2ccccc2)CC1`, 5.56%.

As to GNF-Pf-448, CHEMBL580641, the IFI was found to be 30%. The result for `N=c1c2c(n(Cc3ccc(F)cc3)c3c1CCC3)CCC2` reads 4.54%; that for `COc1ccc(Cl)cc1NC(=S)NNC(=O)c1cccnc1`, 0%. The figure for `CC(=O)Nc1ccc(N2C(=O)CSC2c2ccc(Br)cc2)cc1` (configuration not stated) is 0%. The result for `CCOc1ccc(NC(=O)c2ccc(F)c(S(=O)(=O)NC3CCCCCC3)c2)cc1` reads 0%; that for `CCOC(=O)c1cc(-c2ccc(OC)cc2)n(CCC(=O)Nc2cccc(C(C)=O)c2)c1C`, 0%; that for `Cc1c(-c2ccc(Cl)cc2)[n+]2c(n1-c1ccccc1)SCCC2`, 7.69%. Compound `O=C(c1ccc([N+](=O)[O-])cc1[N+](=O)[O-])N1CCCCC1` had an IFI of 0%. The result for `O=C(NCCN(CCNc1ccnc2cc(Cl)ccc12)CCNc1ccnc2cc(Cl)ccc12)C1CCC1` reads 0%; that for `O=C(NCCCN1CCCCC1)c1ccc2c(c1)sc1nc(-c3ccc(F)cc3)cn12`, 0%; that for `CN(C)c1ccc(C2Nc3ccccc3NC3=C2C(=O)CC(C)(C)C3)cc1` (configuration not stated), 5.59%.

`c1ccc(-c2cc(N3CCC4(CC3)OCCO4)nc(-c3ccccn3)n2)nc1` yielded an IFI of 7.69%. Consider `COc1ccc(C(=O)N(C)CCCNc2ccnc3cc(Cl)ccc23)cc1`, for which the IFI turned out to be 0.935%. The compound `CCOC(=O)c1cc(-c2ccc(Cl)cc2Cl)[nH]c1N1CCN(c2ccc(OC)cc2)CC1` registered an IFI of 0.794%. The result for `CC(C)(C)CC(C)(C)Nc1c(-c2ccccc2OC(=O)c2cccc(C(F)(F)F)c2)nc2ccccn12` reads 3.74%; that for `O=C(COc1ccc(Cl)cc1)NCCCCNc1ccnc2cc(Cl)ccc12`, 2.97%; that for `CCc1ccc(NC(=O)c2sc3nc4c(c(-c5ccco5)c3c2N)CCCC4)cc1`, 1.16%. Compound `CCOC(=O)C1=C(C)NC2=C(C(=O)CC(c3ccc(Cl)cc3)C2)C1c1ccc(F)cc1` (configuration not stated) came in with an IFI of 3.49%. On to `NC(Cc1ccccc1)C(=O)N1CCC(Nc2nsc3ccccc23)C1` (configuration not stated), for which the IFI came out at 10.1%. The result for `Cc1ccc2nc(C)cc(NCCCN(C)C)c2c1` reads 2.33%; that for `CN(C)c1cc[n+](CC(=O)c2cccs2)cc1`, 3.23%; that for `COc1cc(/C=C2\CC/C(=C\c3cc(OC)c(OC)c(OC)c3)C2=O)cc(OC)c1OC`, 2.7%.

Compound `CNc1ccccc1C(=O)N(C)CCc1ccccc1` yielded an IFI of 5.88%.

`CC12CCC(C(=O)N(CC(O)Cn3c4ccc(Cl)cc4c4cc(Cl)ccc43)C1=O)C2(C)C` (configuration not stated) gave an IFI of 2.03%.

`CCN1CCN(CCN2C(=O)C3C(C(=O)Nc4ccc(C(C)C)cc4)C4C=CC3(O4)C2C(=O)NC2CCCCC2)CC1` (configuration not stated) returned an IFI of 0%. `COc1cccc(-c2nc(CS(=O)(=O)CC(=O)N3CC(C)CC(C)C3)c(C)o2)c1` (configuration not stated) registered an IFI of 0%. The compound `Cc1[nH]n(-c2ccccc2)c(=O)c1C(=O)CN(C(=O)c1ccc2c(c1)OCO2)C(C)C` came in with an IFI of 0%.

`COc1ccc(/C=C(\NC(=O)c2ccccc2Br)C(=O)N2CC3CC(C2)c2cccc(=O)n2C3)cc1OC` (configuration not stated): the IFI stood at 0%. The figure for `CCN(CC)c1ccc(NC(=O)C2Cc3ccccc3CN2S(=O)(=O)c2ccc(F)cc2)cc1` (configuration not stated) is 0%; for `Nc1c(C(=O)Nc2ccc(Br)cc2)sc2nc3c(c(-c4cccs4)c12)CCC3` it is 2.33%. `Cc1cccc(Nc2nc(NCc3ccco3)c3ccccc3n2)c1` gave an IFI of 9.43%.

`CC1N=C(c2ccc(NC(=O)c3ccc(C(=O)Nc4ccc(C5=NC(C)C(C)N5)cc4)cc3)cc2)NC1C` (configuration not stated) gave an IFI of 8.11%. Take `COc1ccccc1C(=O)N1CCN(Cc2ccc3ccccc3c2)CC1`: the IFI was determined as 2.33%. In turn, `CCOC(=O)c1c(NC(=O)CSc2nc3c(c(=O)n(C)c(=O)n3C)n2C(C)C)sc2c1CCCC2` had an IFI of 1.77%. The compound `C(=NNc1nc2ccccc2[nH]1)c1ccccc1` gave an IFI of 0%.

`N=c1c2c(n(Cc3ccc(Cl)cc3)c3c1CCC3)CCC2` returned an IFI of 7.14%.

`CN1c2ccccc2N(C)C1c1ccc2c(c1)OCO2` gave an IFI of 0.621%.

With `Cc1[nH]c(=O)[nH]c(=O)c1S(=O)(=O)Nc1ccc2oc(-c3ccncc3)nc2c1`, the IFI is 2.38%. The figure for `c1ccc(CSc2scnc2[P+](c2ccccc2)(c2ccccc2)c2ccccc2)cc1` is 27.8%; for `CC1=C(C(=O)OC2CCCCC2)C(c2ccc(Cl)c(Cl)c2)C2=C(CCCC2=O)N1` (configuration not stated) it is 5.75%; for `O=C(NCc1ccco1)c1ccc(OC2CCN(Cc3ccncc3)CC2)c(Cl)c1` it is 1.39%. In turn, `O=C(Nc1ccc(-c2cn3cccnc3n2)cc1)c1ccccc1I` gave an IFI of 7.69%.

The compound `Cn1nc(-c2ccccc2)c2c(C(=O)C(F)(F)F)cc(C(=O)C(F)(F)F)c-2c1-c1ccccc1` had an IFI of 1.54%.
